{
  "source": "patent US12551573B2",
  "about": "“Compositions and methods for the targeting of PCSK9” (Scribe Therapeutics Inc., priority 2022, dated 2026)",
  "data": [
    {"tested_on": "HBEGF locus", "type": "cell-based, human", "conditions": "high-throughput screen of dXR repression of the HBEGF gene; abundance of each domain in the library before vs after diphtheria toxin selection; listed domains met p-value <0.01 and log2(fold change) >2", "values": [
      {"molecule": "DOMAIN_24282 (protein, listed as Muntiacus reevesi) QAEVTFEDVAVLLSQEEWGLLGPSQKGLYREVMLETYRNLLSLGVGLADPKPEVIVQLERGDELWVLDMHGAEQPSVDGSA", "Log2 (fold change)": 2.694},
      {"molecule": "DOMAIN_23953 (protein, listed as Muntiacus reevesi) AQGSVMFTDVSIDFSQEEWEFLNPDQRDLYKDVMLENYSNLVSMGLYIPKPQVISLLEQGKEPWMIGRELTRGLCSALESM", "Log2 (fold change)": 2.4156},
      {"molecule": "DOMAIN_24546 (protein, listed as Ursus americanus) VLGLVTFGDVAIDFSREEWEWLNSAQRTLHRDVMLENYRNLVSLGLCVSKPDMISSLEQRKEPWMVKRKLTRGRCPDLKTM", "Log2 (fold change)": 3.4262},
      {"molecule": "DOMAIN_24393 (protein, listed as Propithecus coquereli) SLGSELFRDVAIVFSQEEWQWLAPAQRDLYRDVMLETYSNLVSLGLAISKPDVISFLEQGKEPWMVERVATGDLCPVLESG", "Log2 (fold change)": 3.8008},
      {"molecule": "DOMAIN_24212 (protein, Pteropus alecto) KQVSISFEDVTVDFSREEWQHLDPAQRCLYRDVTLENYSHLLSVGYQVPKPEIIFQLEQGEGPWMLERETPHQSCSDEDIG", "Log2 (fold change)": 2.498},
      {"molecule": "DOMAIN_23940 (protein, listed as Homo sapiens) AHALVTFRDVAIDFSQKEWECLDTTQRKLYRDVMLENYNNLVSLAGYSGSKPDVITLLEQGKEPCVVARDVTGRQCPGLLS", "Log2 (fold change)": 2.5087},
      {"molecule": "DOMAIN_24042 (protein, listed as Propithecus coquereli) VQEPVTFKDVAVDFTQEEWGQLDLVQRTLYRDVMLETYGHLLSVGNQITKPEVISLLEQGEEPWSVEQAYPQSTCPEWMRN", "Log2 (fold change)": 3.3038},
      {"molecule": "DOMAIN_24028 (protein, Ursus arctos) KPGAVSFADVAVYFSPEEWGCLRPAQRALYRDVMRETYGHLGALGFPGPKPALISWMEQESEAWSPDAQDPEEGESLGGAL", "Log2 (fold change)": 3.8797},
      {"molecule": "DOMAIN_24496 (protein, listed as Ursus americanus) RPGAVSFADVAVYFSPEEWGCLRPAQRALYREVMRETYGHLGALGFPGPKPALISWMEQESEAWSPDAQDPEEGESLGGAL", "Log2 (fold change)": 3.6403},
      {"molecule": "DOMAIN_24518 (protein, listed as Balaenoptera acutorostrata) KPAAVSFADVAVYFSVEEWGCLRPAQRALYRDVMRETYGHLGALGFPGPKPALISWMEQESEAWSPAAQDPEEGESLGGAL", "Log2 (fold change)": 3.4135},
      {"molecule": "DOMAIN_23745 (protein, listed as Myotis brandtii) MVFEDVAVYFSREEWGLLDSAQRALYRQVMLENFALVASLGLSASRPRIILQLERGEEPWVLSGLDVALARDAQRRPSPAQ", "Log2 (fold change)": 3.4544},
      {"molecule": "DOMAIN_24306 (protein, listed as Propithecus coquereli) PKAPVTFGDVAIYFSKEEWECLSPNQKDLYEDVMMENYQNLASIGFSCRRPNVITLLEKGEAPWMAEPLRRRQGPDSGSKK", "Log2 (fold change)": 3.2084},
      {"molecule": "DOMAIN_23898 (protein, listed as Mustela putorius) LQGQLTFRDVAIEFSEEEWRCLTHTQRQLYRDMMLENYRHLLFLGLIVSKPDLVSFLEQKKDPWDVKRKKTVVFDPGRWEW", "Log2 (fold change)": 2.7383},
      {"molecule": "DOMAIN_24230 (protein, listed as Muntiacus reevesi) SQSPLTFGDVAVEFSGDEWAWLDSAQRSLHRSVMLENYRNLASLGLCMSKPEMISSLEQSKEPWAVKAKSTRGRCPGLEAI", "Log2 (fold change)": 3.1832},
      {"molecule": "DOMAIN_23931 (protein, Gulo gulo) AHGSVMFNDVSIVFSQEEWEYLDLEQRDLYRDVMLENYSNLVSLGCFISKPDVISLLEQGKEPWKVVRKGRRQYPDLETRY", "Log2 (fold change)": 3.8077},
      {"molecule": "DOMAIN_24020 (protein, listed as Rhinolophus ferrumequinum) AHGSVMFSDVSVVFSQEEWDYLDVEQRDLYRDVMLENYNNLVSLGCFISKPDVISLLEQGKEPWKVVRKERRRYPDLETRH", "Log2 (fold change)": 3.1125},
      {"molecule": "DOMAIN_24463 (protein, listed as Balaenoptera acutorostrata) LQEAVTFEDVAVNFSNEEWQCLTHAQRHLYKDVMLENYGNVVSLGFPFPKPPLISHLEQEAELCAQDRQDREFLSCSYPVS", "Log2 (fold change)": 2.5362},
      {"molecule": "DOMAIN_24317 (protein, listed as Myotis brandtii) LDAPVTFEDVAVYFSENEWTCLTCPQRALYRDVMLENYGAVASLAFLFPKPALISRLERGEAPWCSAPQGALDGEGWKGVS", "Log2 (fold change)": 3.9767},
      {"molecule": "DOMAIN_23827 (protein, listed as Odobenus rosmarus) MPVTFEDVAVTFTQEEWGQLDPAQRTLYQEVMLETCGLLVSLGCPLPKPELFYPLDHSPELHTLKRGLSPNSCPGDSTKPG", "Log2 (fold change)": 2.3013},
      {"molecule": "DOMAIN_23895 (protein, listed as Mustela putorius) FQGSVTFRDVAIDFSQEEWEWLQPAQRDLYRHVMLENYGHLVSLGLNISKPHVVSLLEQGRDPWPDNGAVGGGLFSESKGE", "Log2 (fold change)": 2.6148},
      {"molecule": "DOMAIN_24570 (protein, listed as Saimiri boliviensis) PQKSVTFEDVAVYFTQAEWDGLSPAQRTLYRDVMLENYGNVASLGFPLLKPAVISQLEGGGELGGPSPLAAGTGLRGLWTV", "Log2 (fold change)": 3.6773},
      {"molecule": "DOMAIN_23916 (protein, listed as Odobenus rosmarus) FQGSVTFRDVAIDFSQEEWEWLQPAQRDLYRHVMLENYGHLVSLGLDISKPYVVSLLEQGREPWLVKGDVRRDPFSVSESN", "Log2 (fold change)": 3.3232},
      {"molecule": "DOMAIN_24152 (protein, listed as Vombatus ursinus) FWESVTFQDVAVDFTWEEWGHLGPAQKELYREVMLENYRNLVCLGLAVSKPDVICQLEQGGAPWWPEGGVPGSSCAVWDTR", "Log2 (fold change)": 3.3664},
      {"molecule": "DOMAIN_23863 (protein, listed as Mustela putorius) RPELVTFEDVAVYFSENEWTSLAPTQRVLYRDVMLENYGAVASLAVPFPKPALISQLERGEAPWCKAPQGALDGEGPRGIS", "Log2 (fold change)": 2.8758},
      {"molecule": "DOMAIN_23885 (protein, listed as Colobus angolensis) ELVMFRDVAIDVSQEEWECLNPAQRNLYKEVMLENYSNLVSLGLSVSKPAVISSLEQGKEPWMFVREETGRWCSDLASRDE", "Log2 (fold change)": 3.033},
      {"molecule": "DOMAIN_24600 (protein, listed as Ursus americanus) QCGLLTFGDVAIEFSQEEWRCLSHTQRELYRDVMLENYGHLLFLGLIVSKPDLVSLLEQSKEPWDVRRKKTQRPSVLMGHV", "Log2 (fold change)": 3.156},
      {"molecule": "DOMAIN_24379 (protein, listed as Macaca nemestrina) GRVTFRDVAVEFSLAEWKCLNPVQRALYREVMLENYRNLEFVDSSLKSMMEFSSHEHSNTGEGFHTGTLERHKSYHIGDFW", "Log2 (fold change)": 2.4643},
      {"molecule": "DOMAIN_23854 (protein, Gulo gulo) SQSLVTFGDVAVDFSREEWEWLSSAQRNLYRTVMLENYRNLVSLGLCISKPEMISSLEQRKEPWMAKRRLTRGRCPDLKIV", "Log2 (fold change)": 3.838},
      {"molecule": "DOMAIN_23979 (protein, listed as Balaenoptera acutorostrata) SQESVSFEDVAVYFTQNQWASLASAQRTLYREVMLENYANVTSLAAFPFPKPDLIFQLERGEAPGGLDPWTSIRREVRGVC", "Log2 (fold change)": 4.0461},
      {"molecule": "DOMAIN_23793 (protein, listed as Odobenus rosmarus) AWAPLSFEDVAVGFSWEEWQLLAPSQKDLYRDVMLENYRNLVSVGYQASKPDSVFQLEQGEPPWIVEGAAQSQTCQEEIWE", "Log2 (fold change)": 2.7573},
      {"molecule": "DOMAIN_24256 (protein, Ursus arctos) VTFEDVAVYFSWEEWGLLDEAQRCLYQDVMLENLALINSLGLRHGAEDEDAPEHRVSVQAASQVGTRKAVVSPQKAHPREV", "Log2 (fold change)": 2.7933},
      {"molecule": "DOMAIN_24571 (protein, listed as Balaenoptera acutorostrata) PLESVTFEDVAINFTQEEWALLDTSQRNLFRNVMLENISHLVSIGYQISKSDVISQLKQGKELRKSTVSKQCGKSLSQGSF", "Log2 (fold change)": 2.6912},
      {"molecule": "DOMAIN_24113 (protein, listed as Propithecus coquereli) YQTPVSFKDVVVGFTQEEWHRLSPAQRALYRDVMLETYSNLVSVGYEGTKPDVILRLEQEEAPWICEVACPGCHRWEDIWQ", "Log2 (fold change)": 3.3264}
    ]},
    {"tested_on": "HBEGF locus", "type": "cell-based, human", "conditions": "high-throughput screen of dXR repression of the HBEGF gene; change in abundance of each domain in the library before and after diphtheria toxin selection", "values": [
      {"molecule": "DOMAIN_759 (protein, listed as Pan paniscus) MFQTAWRQEPVTFEDVAVYFTQNEWASLDSVQRALYREVMLENYANVASLAFPFTTPVLVSQLEQGELPWGLDPWEPMGRE", "Log2 (fold change)": 3.3019},
      {"molecule": "DOMAIN_761 (protein, listed as Pan paniscus) MMTAVSLTTRPQESVAFEDVAVYFTTKEWAIMVPAERALYRDVMLENYEAVAFVVPPTSKPALVSHLEQGKESCFTQPQGV", "Log2 (fold change)": 3.181},
      {"molecule": "DOMAIN_784 (protein, listed as Pan paniscus) MELLTFKDVAIEFSPEEWKCLDTSQQNLYRDVMLENYRNLVSLGVTISNPDLVTCLEQRKEPYNLKIHETAARPPGHYRKR", "Log2 (fold change)": 2.4886}
    ]}
  ]
}
